Results on one molecule are retold here after patent publication US20260224723A1, “ANTI-B7H3 ANTIBODY-DRUG CONJUGATE AND USE THEREOF” (Duality Biologics (Suzhou) Co., Ltd., priority 2022, published 2026).

One experiment concerns cynomolgus monkey B7H3. Description: SPR binding affinity for cynomolgus monkey B7H3 (Biacore 8K). Particulars: analyte cynomolgus monkey B7H3. The protocol: The affinity of antibodies for cynomolgus monkey B7H3 was determined using surface plasmon resonance (SPR). The affinity of antibodies for cynomolgus monkey B7H3 was determined by Biacore 8K. An activator was prepared by mixing 400 mM EDC and 100 mM NHS (GE) immediately prior to injection into the channel. The CM5 sensor chip was activated for 420 seconds with the activator. Goat anti-human Fe IgG (30 μg/mL in 10 mM NaAc, pH 4.5) was then injected into the channel at a flow rate of 10 μL/min for 420 seconds. The chip was deactivated by 1 M ethanolamine hydrochloric acid. The antibodies diluted in running buffer (1×HBS-EP+) were injected into the channel at a flow rate of 10 μL/min for 30 seconds. […] Glycine (10 mM, pH 1.5) was injected as regeneration buffer after the dissociation phase.
The sensorgrams for the reference channel and the buffer channel were subtracted from the test sensorgrams. The experimental data for 6 analyte concentrations (50 nM, 25 nM, 12.5 nM, 6.25 nM, 3.125 nM, and 1.563 nM) were fitted with a 1:1 binding model. The molecular weight of the cynomolgus monkey B7H3 used in the calculation was 49 kDa.
(§1) The experimental data were fitted by a 1:1 binding model bundled with the Biacore 8K evaluation software.
A general note: Surface plasmon resonance follows binding to a sensor surface in real time, without labels.

The next experiment deals with T1, human 4IgB7H3 (Homo sapiens, UniProt Q5ZPR3).
T1 construct: Uniprot ID: Q5ZPR3, amino acids 29-461; 6xHis (C); made in house; host or cells: Expi293F
T1 sequence (Q5ZPR3 29-461): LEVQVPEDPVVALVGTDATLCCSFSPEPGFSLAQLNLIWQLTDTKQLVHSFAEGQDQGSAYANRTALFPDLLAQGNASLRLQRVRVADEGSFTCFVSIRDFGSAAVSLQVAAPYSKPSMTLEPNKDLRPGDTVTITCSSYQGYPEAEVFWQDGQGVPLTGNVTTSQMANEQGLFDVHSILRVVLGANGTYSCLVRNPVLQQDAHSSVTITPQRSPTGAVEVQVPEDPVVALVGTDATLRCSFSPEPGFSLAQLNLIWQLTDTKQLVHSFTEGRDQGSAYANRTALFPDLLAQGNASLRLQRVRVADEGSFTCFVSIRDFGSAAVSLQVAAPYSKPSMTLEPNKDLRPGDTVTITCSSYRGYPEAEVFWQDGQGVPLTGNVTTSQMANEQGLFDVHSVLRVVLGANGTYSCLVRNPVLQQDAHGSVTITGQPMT
The experiment can be described thus: SPR binding affinity for human 4IgB7H3 (Biacore 8K). The conditions noted are these: analyte human 4IgB7H3. The protocol:
The affinity of antibodies for human 4IgB7H3 was determined using surface plasmon resonance (SPR). The affinity of antibodies for human 4IgB7H3 was determined by Biacore 8K. An activator was prepared by mixing 400 mM EDC and 100 mM NHS (GE) immediately prior to injection into the channel. The CM5 sensor chip was activated for 420 seconds with the activator. Goat anti-human Fc IgG (30 μg/mL in 10 mM NaAc, pH 4.5) was then injected into the channel at a flow rate of 10 μL/min for 420 seconds. The chip was deactivated by 1 M ethanolamine hydrochloric acid. The antibodies diluted in running buffer (1×HBS-EP+) were injected into the channel at a flow rate of 10 μL/min for 30 seconds. Seven concentrations (100 nM, 50 nM, 25 nM, 12.5 nM, 6.25 nM, […], and 1.563 nM) of analyte human 4IgB7H3 were injected sequentially into the channel at a flow rate of 30 μL/min for an association phase of 180 seconds, followed by dissociation of 3600 seconds. Glycine (10 mM, pH 1.5) was injected as regeneration buffer after the dissociation phase.
The sensorgrams for the reference channel and the buffer channel were subtracted from the test sensorgrams. The experimental data were fitted with a 1:1 binding model. The molecular weight of the human 4IgB7H3 used in the calculation was 47.8 kDa.
as §1

A further experiment concerns the target T2, human 2IgB7H3 (Homo sapiens, UniProt Q5ZPR3).
T2 construct: His tag; purchased ACRO (ACROBiosystems) B73-H52E2
T2 sequence (Q5ZPR3 29-316 isoform Q5ZPR3-2 limits assumed): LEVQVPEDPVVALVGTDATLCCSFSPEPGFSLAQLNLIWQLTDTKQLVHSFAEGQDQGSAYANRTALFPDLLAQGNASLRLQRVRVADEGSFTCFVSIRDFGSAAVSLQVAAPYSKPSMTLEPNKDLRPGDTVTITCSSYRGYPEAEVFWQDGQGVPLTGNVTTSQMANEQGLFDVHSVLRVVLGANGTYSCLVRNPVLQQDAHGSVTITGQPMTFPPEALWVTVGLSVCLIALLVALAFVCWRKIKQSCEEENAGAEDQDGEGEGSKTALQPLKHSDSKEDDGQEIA
The experiment can be described thus: SPR binding affinity for human 2IgB7H3 (Biacore 8K). The conditions noted are these: analyte human 2IgB7H3. The protocol: The affinity of antibodies for human 2IgB7H3 was determined using surface plasmon resonance (SPR). The affinity of antibodies for human 2IgB7H3 was determined by Biacore 8K. An activator was prepared by mixing 400 mM EDC and 100 mM NHS (GE) immediately prior to injection into the channel. The CM5 sensor chip was activated for 420 seconds with the activator. Goat anti-human Fc IgG (30 μg/mL in 10 mM NaAc, pH 4.5) was then injected into the channel at a flow rate of 10 μL/min for 420 seconds. The chip was deactivated by 1 M ethanolamine hydrochloric acid. The antibodies diluted in running buffer (1×HBS-EP+) were injected into the channel at a flow rate of 10 μL/min for 30 seconds. Seven concentrations (500 nM, 250 nM, 125 nM, 62.5 nM, 31.25 nM, 15.625 nM, and 7.813 nM) of analyte human 2IgB7H3 were injected sequentially into the channel at a flow rate of 30 μL/min for an association phase of 120 seconds, followed by dissociation of 300 seconds. Glycine (10 mM, pH 1.5) was injected as regeneration buffer after the dissociation phase.
The sensorgrams for the reference channel and the buffer channel were subtracted from the test sensorgrams. The experimental data were fitted with a 1:1 binding model. The molecular weight of the human 2IgB7H3 used in the calculation was 25.2 kDa.
as §1

B1: W301088-1.145.16-xIgG1KV320: chimeric anti-B7H3 human IgG1 LALA antibody, heavy chain SEQ ID NO: 14, light chain SEQ ID NO: 15 (antibody)
heavy: DVQLQESGPGLVKPSQSLSLTCTVTDYSITGDYAWNWIRQFPGNKLEWMGYISYSGSTSYNPSLQSRISITRDTSKNQFFLQLNSVTSEDTATYFCARSLGRRWYFVVWGAGTTVTVSAASTKGPSVFPLAPSSKSTSGGTAALGCLVKDYFPEPVTVSWNSGALTSGVHTFPAVLQSSGLYSLSSVVTVPSSSLGTQTYICNVNHKPSNTKVDKRV[not shown - human IgG1 Fc with changes]
light: DIVMTQSPSSLAMSVGQKVTMSCKSSQSLLNSSNQKNYLAWYQQKPGQSPKLLIYFASTRESGVPDRFIGSGSGTDFTLTISSVQAEDLTDYFCQQHYSAPWTFGGGTKLEIKRTVAAPSVFIFPPSDEQLKSGTASVVCLLNNFYPREAKVQWKVDNALQSGNSQESVTEQDSKDSTYSLSSTLTLSKADYEKHKVYACEVTHQGLSSPVTKSFNRGEC
Regarding B1, the ka in the experiment with cynomolgus monkey B7H3 is 521000 M⁻¹ s⁻¹; with human 4IgB7H3, 657000 M⁻¹ s⁻¹; with human 2IgB7H3 it was 235000 M⁻¹ s⁻¹. For the same molecule, the kd at cynomolgus monkey B7H3 came to 2.94e-05 s⁻¹; in the experiment with human 4IgB7H3, 3.39e-05 s⁻¹; in the experiment with human 2IgB7H3 it was 0.0136 s⁻¹.
